# Experimental data as given in article PMC12136788.
# The list shows a part of the results.
# B1: 32428398_32428518_72_5pUTR_ENSMUSG00000027668_ENSMUST00000091257|mouse|control|control (ssRNA)
# RNA: GGGAGUUCUACAGUCCGACGAUCAGGUCACCCCGGACGUCGCCACCCGCCAGCGGACACUCACUCCGUCCCUGCUCCCCACUGUCACCCAGCAACCACAGCUCCGCCACAGCCCCCUGGCUGUCUCAUCCUCCCGAAAGAGGGCAACAGAGGAUUGAGCAUCA
# B2: chr2:47387409:47387410:-_ENSG00000143933_ENST00000272298|hu_mus|motif|central (ssRNA)
# RNA: GGGAGUUCUACAGUCCGACGAUCCAACUUGGAAUGGAUUUGAGGCAAGUUGUGCCAUGAGCAGGUUUUCUUUAAGUGGCGGAACAAAGUUUAAAAAGCAAGUAACAAUAAAAGAAAAUGUUCCUGGUACAAUACCAGCAGUACCAACAGAGGAUUGAGCAUCA
# B3: chrX:140365796:140365797:-_ENSMUSG00000031285_ENSMUST00000033642|mus_mus|mus_mus_mus_hu_False|1_28 (ssRNA)
# RNA: GGGAGUUCUACAGUCCGACGAUCCUUCUCAUUACUCAGUGCCUGCAAGGUUCUGGUUCGGUAGAAGCUACAGUGGGCGCUGUGAGUGGGGCUAGGCAACCCAUUCAUCCGUGACCCUCGCAUGUUCCUGGAUGUCUUGUCUCGCAACAGAGGAUUGAGCAUCA
# B4: chr8:104447970:104447971:+_ENSG00000164934_ENST00000297579|hu_hu|hu_hu_hu_mus_False|18_48 (ssRNA)
# RNA: GGGAGUUCUACAGUCCGACGAUCAUACACUUCCCUGCUUCGGCUCUUGUCCACAGGAAAGAUUCUAAUAGACUUAUCAAAGCUGGCAGACACAAACUCCUUCCCAGUGGGAGAGUAAUCCACAUCAAGUACUGCAGACACGUGCAACAGAGGAUUGAGCAUCA
# B5: chrX:71549400:71549401:+_ENSMUSG00000019087_ENSMUST00000019231|mus_hu|mus_mus_mus_hu_False|18_18 (ssRNA)
# RNA: GGGAGUUCUACAGUCCGACGAUCGCAGUAGGAAGAGGGAAGCUCUUCAGUCCAGUGCGCUGCAGGGUGGGAAAGCAACAACACGGACACCGUCCCACCCUCAACCCCCCCACUGGCAUGUCACACAACAAUCUGGGUCAAAGACAACAGAGGAUUGAGCAUCA
# B6: chr19:45826695:45826696:-_ENSMUSG00000025220_ENSMUST00000026243|mus_hu|motif|central (ssRNA)
# RNA: GGGAGUUCUACAGUCCGACGAUCACCAAGUAUAACCACAUCCUUUGGAAAUCCUUCCAUUUUUGCAAUUUCAAAACAUCCGGACUUGCUGUAAAAUUCCAGAAUUCUUUUAUCAUCUGGUCUCACUUCACAGAAAGCUCCCCGCAACAGAGGAUUGAGCAUCA
# B7: chr2:78760142:78760143:+_ENSMUSG00000027011_ENSMUST00000028398|mus_mus|motif|central (ssRNA)
# RNA: GGGAGUUCUACAGUCCGACGAUCGGUCCACUGUCUGGCUAUCCUGUCAUGUUCUGCUCUGUUGGUCAAAUACUGAGUGGCGGUGCUUCCGACCAGAGGAUCCGCAGGGUUGCAAUCUGUCAAAAGGGAACAAAUAGAGAGCAACAACAGAGGAUUGAGCAUCA
# B8: chr2:216981417:216981418:+_ENSG00000079246_ENST00000392132|hu_hu|hu_hu_hu_mus_True|1_68 (ssRNA)
# RNA: GGGAGUUCUACAGUCCGACGAUCCUGAUACUGGUCCUUGCCAGCAAGGGCAUUAUCAGUGCCAUCUGUACCAAACAGGACUAACGCAAUCUCAUCUUUGCUCUCCGAAAAUACCUGUCGUUGGACAAACAUAGUCAUCACCUUCAACAGAGGAUUGAGCAUCA
# B9: chr11:51804959:51804960:-_ENSMUSG00000020390_ENSMUST00000020657|perfect_dup|motif|central (ssRNA)
# RNA: GGGAGUUCUACAGUCCGACGAUCAUUUUGGAUAAAAACCUAACAGUUGGUGGUUUAUUUGGAUAUUCUUCAGAAAAUUCGGUUACGGGUUUAAAAGUACCAUCUUCAAAAGGUGUCCCUUCUGGUCCAAAUAUAACUGCAUUCCAACAGAGGAUUGAGCAUCA
# B10: chr7:65705844:65705845:+_ENSG00000169902_ENST00000304842|hu_hu|FALSE|FALSE (ssRNA)
# RNA: GGGAGUUCUACAGUCCGACGAUCAAAAGGAUCUUUAUUACAUAAAUAAGGGGCUGGCUCCCCAUGCUUAACGAUAAUUUCUAGUAAGAAGGCUUGCAUGGCAGAAUCCAGCACUUCAUCAGUAACACCAGCCUCAUCCAGGCGCAACAGAGGAUUGAGCAUCA
# B11: chr1:39494564:39494565:+_ENSG00000168653_ENST00000372967|hu_hu|hu_hu_hu_mus_True|8_78 (ssRNA)
# RNA: GGGAGUUCUACAGUCCGACGAUCAUGCAUUCGCCUCAUCGUUUUGUACCGAAGCAAACACUCUACGAAGUCAUCGAACUCUAUCUUGCACUCCUUUUUCGCCCGGGUCCCACCGAUCCCGUGUGCACAUUCUAUCCACUCUUUCAACAGAGGAUUGAGCAUCA
# B12: 123332865_123334832_1155_CDS_ENSG00000106299_ENST00000223023|human|control|control (ssRNA)
# RNA: GGGAGUUCUACAGUCCGACGAUCUGGAGGGGGAGGAGGAGGAGGUGGCCCUCCCCUUGAUGGUGGUGGAGGUGGUGGUGCUUGCCUCCGCAGUUCAUUUUUAACAGCUUCAACACCUCCUGUUUUUUCAAUAAAGUCAUAUAUCAACAGAGGAUUGAGCAUCA
# B13: chr2:104521139:104521140:-_ENSMUSG00000027175_ENSMUST00000111118|mus_mus|motif|central (ssRNA)
# RNA: GGGAGUUCUACAGUCCGACGAUCGAUGCGGGAGAUCAACCCCGGGGCCUCGUGCAGGCUAGGCGAUCACUGGCCACUGUACGGCAUACAAGUUGACAAAACAAGCUUUUAAAAAUCAAGUUCUAUCCAUUGGGUAUGGUGGCACAACAGAGGAUUGAGCAUCA
# B14: chr1:180251892:180251893:+_ENSMUSG00000026500_ENSMUST00000027781|mus_hu|FALSE|FALSE (ssRNA)
# RNA: GGGAGUUCUACAGUCCGACGAUCUGAACCAUACAAUAUUGAAUGCCGGGCGCAGGGAGUAUUUUCAACAUCUAAAAAUCCUAGGAGCUUAAGGGACUUCCAAUAUGAUAAAUGUAACGACGUACAAGAUGCCUUCCUCUCCUCCAACAGAGGAUUGAGCAUCA
# B15: chr4:17841332:17841333:+_ENSG00000109805_ENST00000514176|hu_mus|FALSE|FALSE (ssRNA)
# RNA: GGGAGUUCUACAGUCCGACGAUCUUUUGUAUAAACCCGAUUUUCUGGUGAGCAUGGACUUGUUAAGAUCUCAUUGCAAAUUUUUAUAGCCAAGUUGUCAUGUACUGUUAAGGCCUGAUAAUCCUGAGAAUUCUUUGCCUUAGGCAACAGAGGAUUGAGCAUCA
# B16: 197150131_197157425_1671_CDS_ENSG00000177888_ENST00000367405|human|control|control (ssRNA)
# RNA: GGGAGUUCUACAGUCCGACGAUCUUUUCCACAGAUAAAGCAAGUCCAUUUUCUCUUUCCACCAUGAGUACAUUCUAUAUGACGUUUCAAAUUUCCAGUGUCGUUAAACUGGCGACCACAUAUAUCACAUGGAAAAGGACCCAGCAACAGAGGAUUGAGCAUCA
# B17: chr1:109605286:109605287:-_ENSG00000197780_ENST00000461096|hu_mus|hu_hu_hu_mus_True|1_38 (ssRNA)
# RNA: GGGAGUUCUACAGUCCGACGAUCAAGUUUCAGAGUAACAUUCAGUAACCUCUUUAAAUGCAAUUAUCCUUAUUAUAAGCUAAGCAGAAUAAUAAUUUAAUACAUAGAGUGAACUACACACAAAGCCUGAACCGCGAAACUACACAACAGAGGAUUGAGCAUCA
# B18: chr4:76721835:76721836:+_ENSG00000138768_ENST00000264904|hu_mus|hu_hu_hu_mus_True|28_38 (ssRNA)
# RNA: GGGAGUUCUACAGUCCGACGAUCGUUUGGCUGGGGUUUCUGAGACGCUCUGGAAUAUAACUCAUGUUUGCUAAUAAAUCCUAGUUUCUCUAUGAAAUCUCUUUGCCAAUCCUCUUCCUCUAUUAGUUGCUUUAGUUUCUCUUUCAACAGAGGAUUGAGCAUCA
# B19: chr12:48362563:48362564:+_ENSG00000134291_ENST00000256686|hu_hu|hu_hu_hu_mus_False|38_98 (ssRNA)
# RNA: GGGAGUUCUACAGUCCGACGAUCUCCGUCAAGCCCUUCAAGCCCCACUUGCGGGGGAAACUGUAAUCACUUUGUAUGGGGAAGGAAAAGAAACGCCAACACACUUUCAAAAAGCGGGGGUGGGGUGAGGCGGGAGGGGGAGGUCAACAGAGGAUUGAGCAUCA
# B20: chr6:109703465:109703466:-_ENSG00000135535_ENST00000310786|hu_hu|FALSE|FALSE (ssRNA)
# RNA: GGGAGUUCUACAGUCCGACGAUCAGUGGUGACCAGCGGGAGGGACGUCACCGGCGCCGAGGUUACGUUGGAGAUGGGCGCUAAAGUCGUCACGUUCGGGUGCUGGGUCGUGUUCUUGUCCGCGGACAGCACGCAGAGCACGCCCAACAGAGGAUUGAGCAUCA
# B21: chr2:78758850:78758851:+_ENSMUSG00000027011_ENSMUST00000028398|mus_mus|FALSE|FALSE (ssRNA)
# RNA: GGGAGUUCUACAGUCCGACGAUCAUCCAGGCAGAUGACUCCCUGACUGUUGAUGUUGCAGUGAUAGAUUCUGGUACGGAAAGUAACCUUUGGUGGCUUAAAUGGAUAAUCUGAAGAAAAUGUGAUAUCCAGAAAAAAAACACCCAACAGAGGAUUGAGCAUCA
# B22: chr4:148551591:148551592:-_ENSMUSG00000063077_ENSMUST00000060537|mus_hu|mus_mus_mus_hu_False|1_18 (ssRNA)
# RNA: GGGAGUUCUACAGUCCGACGAUCACCUGACAAAAUUAAAUAUCCCUGUAAAUUAGACAAUAAGCAGCAGGCAACAAAGUCUUUGCUUUGGAAUAUGUGCCAGGAAAAGUCAUCUUGUAGACCCCAAUCAAGAGACACAACCAUCAACAGAGGAUUGAGCAUCA
# Target: T1, UNK ZnF1-3 (human, UniProt Q9C0B0 31-174)
# T1 sequence: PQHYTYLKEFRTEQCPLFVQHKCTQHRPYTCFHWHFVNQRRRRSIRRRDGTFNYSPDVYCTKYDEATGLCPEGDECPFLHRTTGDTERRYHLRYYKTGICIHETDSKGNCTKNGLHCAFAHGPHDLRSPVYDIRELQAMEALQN
# Experiment: nsRBNS (natural sequence RNA bind-n-seq); RBNS binding buffer (assumed for nsRBNS): 25 mM Tris pH 7.5, 150 mM KCl, 3 mM MgCl2, 0.01% Triton X-100, 500 ug/ml BSA, 20 U/ml SUPERase-In, 4 C; UNK is unkempt and MSI1 is Musashi-1; names of the RNAs are library labels; protein concentration not given here; high values mean tight binding
row,Binder,binding signal
1,B1,1.48 enrichment R
2,B2,1.61 enrichment R
3,B3,0.504 enrichment R
4,B4,1.04 enrichment R
5,B5,1.35 enrichment R
6,B6,0.696 enrichment R
7,B7,1.65 enrichment R
8,B8,0.71 enrichment R
9,B9,0.829 enrichment R
10,B10,0.786 enrichment R
11,B11,0.657 enrichment R
12,B12,1.02 enrichment R
13,B13,0.967 enrichment R
14,B14,1.9 enrichment R
15,B15,0.762 enrichment R
16,B16,1.2 enrichment R
17,B17,0.664 enrichment R
18,B18,0.455 enrichment R
19,B19,2.31 enrichment R
20,B20,0.53 enrichment R
21,B21,1.38 enrichment R
22,B22,1.7 enrichment R
